Test results published in PubChem BioAssay (Tox21).
Where “and” joins values, the source holds several entries; their conditions need not be identical. Equal entries are not always repeated. The inconclusive results got no clear call from the source; some entries with a clear call stand among them for comparison. Potencies beside an inconclusive call are fits to weak or partial responses and may not hold up. Where a structure was tested more than once in an assay, its records may differ in their call. Calls of active or inactive are those of the source. Unless noted, the call rests on the fitted dose curve.

Key:
[1] = qHTS assay to identify small molecule antagonists of the sonic hedgehog signaling (Shh) pathway (AID 1259369); further: nearly all actives have a fitted effect of over 45% in size; on activity change, negative = inhibition: on the % scale 0 is the no-effect control and ±100 the full control effect
Summary of the method: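 Antagonist mode: compound added to 3T3 Gli1-Luc cells followed by conditioned-medium stimulation, 24 h at 37 C, 5% CO2. Inhibition taken as loss of Gli1-driven luciferase luminescence.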

[2] = target: Estrogen receptor beta (Homo sapiens) (UniProt Q92731); experiment: qHTS assay to identify small molecule agonists of the estrogen receptor beta (ER-beta) signaling pathway (AID 1259377; active means well fitted activation curve with a large enough effect in the signal ratio in the repeat runs, not every such curve was filed as active; inconclusive means weak or mixed curves, or effect the other way; the % refers to the signal ratio; on activation: on the % scale 0 is the no-effect control and ±100 the full control effect); details: ER-beta-UAS-bla HEK293T, beta-lactamase FRET ratio, 16 h; activation: at 92.4 µM (top of the series) unless noted
Summary of the method: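 HEK293T ER-beta-UAS-bla; 2% charcoal-stripped FBS; cells pre-incubated 6 hr, compound 16 hr, 37C/5% CO2; LiveBLAzer B/G FRET substrate 2 h RT; fluorescence intensity read.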

[3] = target: Estrogen receptor beta (Homo sapiens) (UniProt Q92731); experiment: qHTS assay to identify small molecule antagonists of the estrogen receptor beta (ER-beta) signaling pathway (AID 1259378; active means well fitted inhibition curve with a large enough effect in the signal ratio in the repeat runs, not every such curve was filed as active; inconclusive means weak or mixed curves, or effect the other way; inactive means no such curve, though single readings can be large or run the other way; the % refers to the signal ratio; on activity, negative = inhibition: on the % scale 0 is the no-effect control and ±100 the full control effect); details: ER-beta-UAS-bla HEK293T, beta-lactamase FRET ratio, 16 h; activity, negative = inhibition: at 92.4 µM (top of the series) unless noted
Summary of the method: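 ER-beta-UAS-bla HEK293T cells in 2% charcoal-stripped FBS medium treated with compound plus 1nM final 17-beta-estradiol for 16 hr at 37C. Beta-lactamase reporter read by FRET substrate fluorescence after 2 hours at room temperature.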

[4] = qHTS assay to identify small molecule antagonists of the estrogen receptor beta (ER-beta) signaling pathway - cell viability counter screen (AID 1259382; active means well fitted curve in the direction sought with a large enough effect in the repeat runs; inconclusive means weak or mixed curves; inactive means no such curve, though single readings can be large; an effect the other way counts as inactive or inconclusive; further: nearly all actives have a fitted effect of over 55% in size)
Summary of the method: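 Cytotoxicity was measured in the same wells by CellTiter-Glo luminescence after 30 min at room temperature. Cells were ER-beta-bla HEK293T in charcoal-stripped serum, given compound together with 1 nM E2 and incubated 16 h at 37C.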

[5] = qHTS assay to identify small molecule antagonists of the progesterone receptor (PR) signaling pathway - cell viability counter screen (AID 1346798; active means well fitted curve in the direction sought with a large enough effect in the repeat runs; inconclusive means weak or mixed curves; inactive means no such curve, though single readings can be large; an effect the other way counts as inactive or inconclusive; further: nearly all actives have a fitted effect of over 50% in size)
Summary of the method: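 HEK293T PR-UAS-bla, 2% charcoal-stripped FBS; 4 hr pre-plate; cpd + R5020, 16 h 37C; LiveBLAzer read first; then CellTiter-Glo 30 min RT, luminescence.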

[6] = qHTS assay to identify small molecule agonists of the progesterone receptor (PR) signaling pathway - cell viability counter screen (AID 1346799); further: nearly all actives have a fitted effect of over 45% in size
Summary of the method: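 Luminescence from CellTiter-Glo, added after the beta-lactamase FRET read in the same wells, gave cytotoxicity in PR-UAS-bla HEK293T cells treated with compounds for 16 hr at 37C.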

[7] = target: Progesterone receptor (Homo sapiens) (UniProt P06401); experiment: qHTS assay to identify small molecule antagonists of the progesterone receptor (PR) signaling pathway (AID 1346795; active means well fitted inhibition curve with a large enough effect in the signal ratio in the repeat runs, not every such curve was filed as active; inconclusive means weak or mixed curves; the % refers to the signal ratio; on activity change, negative = inhibition: on the % scale 0 is the no-effect control and ±100 the full control effect); details: PR-UAS-bla HEK293T, beta-lactamase FRET ratio, 16 h; activity change, negative = inhibition: at 92.4 µM (top of the series) unless noted
Summary of the method: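 Read-out is fluorescence from the LiveBLAzer B/G FRET substrate, cleaved by a UAS-controlled beta-lactamase in PR-UAS-bla HEK293T cells after 16 hr exposure to compound plus 1 nM promegestone (final), followed by 2 hr at room temperature.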

[8] = qHTS assay to identify small molecule agonists of the estrogen receptor beta (ER-beta) signaling pathway - cell viability counter screen (AID 1259380; active means well fitted curve in the direction sought with a large enough effect in the repeat runs; inconclusive means weak or mixed curves; inactive means no such curve, though single readings can be large; an effect the other way counts as inactive or inconclusive; further: nearly all actives have a fitted effect of over 30% in size)
Summary of the method: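 Cell viability counter screen: CellTiter-Glo luminescence (30 min, room temperature) measured in the same wells as the beta-lactamase readout, after 16 hr compound exposure at 37C of ER-beta-bla HEK293T cells in 2% charcoal-stripped FBS medium.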

[9] = target: Thyrotropin receptor (Homo sapiens) (UniProt P16473); experiment: qHTS assay to identify small molecule antagonists of the thyroid stimulating hormone receptor (TSHR) signaling pathway (AID 1259385); details: TSHR-HEK293 cAMP HTRF, TSH-stimulated antagonist mode; activity change, negative = inhibition: at 92.4 µM (top of the series) unless noted; further: nearly all actives have a fitted effect of over 20% in size
Summary of the method: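 TSHR-HEK293 cells (800/well) plated 18 h, then compounds with Ro20-1724 and TSH at 1.5 ng/mL final, 30 min at room temperature. cAMP quantified by HTRF (cAMP-d2/anti-cAMP-cryptate, 1 h); 15 concentrations in triplicate.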

[10] = target: Progesterone receptor (Homo sapiens) (UniProt P06401); experiment: qHTS assay to identify small molecule agonists of the progesterone receptor (PR) signaling pathway (AID 1346784); details: PR-UAS-bla HEK293T, beta-lactamase FRET ratio, 16 h; activation: at 92.4 µM (top of the series) unless noted; further: nearly all actives have a fitted effect of over 30% in size
Summary of the method: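 Beta-lactamase reporter read-out: after 16 hr compound treatment at 37C and a further 2 hr at room temperature with LiveBLAzer B/G FRET substrate, fluorescence was measured in PR-UAS-bla HEK 293T cells grown in 2% charcoal-stripped serum.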

[11] = qHTS assay to identify small molecule antagonists of the TGF-beta/Smad signaling pathway - cell viability counter screen (AID 1346824; active means well fitted curve in the direction sought with a large enough effect in the repeat runs; inconclusive means weak or mixed curves; inactive means no such curve, though single readings can be large; an effect the other way counts as inactive or inconclusive; further: nearly all actives have a fitted effect of over 50% in size)
Summary of the method: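 SBE-bla HEK 293T cells, incubated overnight, then compound plus 0.25 ng/mL TGF-beta1 (stock added) for 5 hr at 37 C. Viability was read in the same wells by CellTiter-Glo luminescence after 30 min at room temperature.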

[12] = target: Estrogen receptor (Homo sapiens) (UniProt P03372); experiment: qHTS assay to identify small molecule agonists of the estrogen receptor alpha (ER-alpha) signaling pathway in the presence of an antagonist (AID 1259383); further: nearly all actives have a fitted effect of over 15% in size
Summary of the method: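 Agonist-mode confirmation run in the presence of 10.0nM (final) ICI-182,780 antagonist. The reporter was ERE-driven luciferase in VM7Luc4E2 cells, grown in charcoal-stripped serum. Cells were exposed to 15-concentration compound series for 22hr, then ONE-Glo luminescence was read.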
Potency means the concentration at half of the fitted maximal effect; tags describe the fitted curve by direction and shape or compound fluorescence and quenching.

Chain of UniProt Q92731 (Q92731 whole entry, looked up): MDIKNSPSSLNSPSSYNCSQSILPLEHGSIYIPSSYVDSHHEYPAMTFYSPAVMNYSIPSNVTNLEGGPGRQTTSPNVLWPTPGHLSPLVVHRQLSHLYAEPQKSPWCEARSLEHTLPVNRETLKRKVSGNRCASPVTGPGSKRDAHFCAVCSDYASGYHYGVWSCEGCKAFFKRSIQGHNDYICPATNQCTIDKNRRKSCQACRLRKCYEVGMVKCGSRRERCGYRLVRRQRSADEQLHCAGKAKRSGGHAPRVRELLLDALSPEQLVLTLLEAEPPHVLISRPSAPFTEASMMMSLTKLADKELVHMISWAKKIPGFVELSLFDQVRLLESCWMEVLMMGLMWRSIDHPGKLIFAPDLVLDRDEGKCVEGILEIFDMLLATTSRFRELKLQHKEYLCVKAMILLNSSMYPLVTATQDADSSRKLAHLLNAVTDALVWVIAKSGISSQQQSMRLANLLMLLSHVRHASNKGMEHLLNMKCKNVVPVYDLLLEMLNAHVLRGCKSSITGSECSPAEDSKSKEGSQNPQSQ
Chain of UniProt P06401 (P06401 whole entry, looked up): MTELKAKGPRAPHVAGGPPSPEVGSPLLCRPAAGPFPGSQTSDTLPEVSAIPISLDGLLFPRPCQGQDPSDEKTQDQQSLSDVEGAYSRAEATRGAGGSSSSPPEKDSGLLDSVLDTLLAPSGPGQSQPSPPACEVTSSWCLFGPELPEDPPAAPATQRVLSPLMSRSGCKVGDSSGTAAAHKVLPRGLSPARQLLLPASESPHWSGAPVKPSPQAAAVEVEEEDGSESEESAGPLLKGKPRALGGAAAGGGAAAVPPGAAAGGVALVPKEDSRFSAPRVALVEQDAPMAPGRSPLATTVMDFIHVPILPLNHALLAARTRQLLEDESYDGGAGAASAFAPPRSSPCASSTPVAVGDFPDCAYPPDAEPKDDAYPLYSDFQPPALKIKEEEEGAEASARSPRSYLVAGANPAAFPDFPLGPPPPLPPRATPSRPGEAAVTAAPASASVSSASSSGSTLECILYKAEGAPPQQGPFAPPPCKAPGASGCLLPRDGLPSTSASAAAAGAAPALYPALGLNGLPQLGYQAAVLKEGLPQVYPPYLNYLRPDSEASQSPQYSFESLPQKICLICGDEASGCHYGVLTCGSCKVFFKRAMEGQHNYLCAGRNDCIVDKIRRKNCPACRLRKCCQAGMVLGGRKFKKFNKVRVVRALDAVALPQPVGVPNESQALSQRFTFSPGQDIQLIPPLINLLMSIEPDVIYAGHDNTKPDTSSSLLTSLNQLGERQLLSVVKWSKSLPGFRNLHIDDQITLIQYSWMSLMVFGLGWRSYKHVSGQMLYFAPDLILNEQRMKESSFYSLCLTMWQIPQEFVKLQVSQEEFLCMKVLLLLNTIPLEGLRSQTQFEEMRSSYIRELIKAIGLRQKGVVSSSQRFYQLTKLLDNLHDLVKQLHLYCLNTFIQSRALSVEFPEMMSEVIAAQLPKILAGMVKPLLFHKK
Chain of UniProt P16473 (P16473 whole entry, looked up): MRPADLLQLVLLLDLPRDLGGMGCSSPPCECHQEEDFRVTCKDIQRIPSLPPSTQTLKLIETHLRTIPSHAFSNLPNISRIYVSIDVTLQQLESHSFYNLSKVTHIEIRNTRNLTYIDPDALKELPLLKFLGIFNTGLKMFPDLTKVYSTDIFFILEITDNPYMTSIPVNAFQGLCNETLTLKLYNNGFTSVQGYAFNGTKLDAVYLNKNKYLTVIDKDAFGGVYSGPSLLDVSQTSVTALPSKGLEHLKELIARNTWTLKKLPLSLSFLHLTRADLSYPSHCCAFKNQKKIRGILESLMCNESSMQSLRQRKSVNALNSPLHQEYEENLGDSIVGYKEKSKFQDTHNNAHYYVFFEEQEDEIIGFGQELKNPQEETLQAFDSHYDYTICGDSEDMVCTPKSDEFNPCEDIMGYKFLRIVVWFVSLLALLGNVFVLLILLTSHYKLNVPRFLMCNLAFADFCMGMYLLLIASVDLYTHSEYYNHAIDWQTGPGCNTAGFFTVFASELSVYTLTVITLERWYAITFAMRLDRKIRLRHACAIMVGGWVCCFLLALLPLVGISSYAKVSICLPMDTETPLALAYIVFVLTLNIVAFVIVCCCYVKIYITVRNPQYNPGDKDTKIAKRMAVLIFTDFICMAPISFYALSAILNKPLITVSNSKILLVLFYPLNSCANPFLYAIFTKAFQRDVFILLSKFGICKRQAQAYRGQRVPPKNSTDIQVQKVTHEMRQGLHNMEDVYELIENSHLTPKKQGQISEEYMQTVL
Chain of UniProt P03372 (P03372 whole entry, looked up): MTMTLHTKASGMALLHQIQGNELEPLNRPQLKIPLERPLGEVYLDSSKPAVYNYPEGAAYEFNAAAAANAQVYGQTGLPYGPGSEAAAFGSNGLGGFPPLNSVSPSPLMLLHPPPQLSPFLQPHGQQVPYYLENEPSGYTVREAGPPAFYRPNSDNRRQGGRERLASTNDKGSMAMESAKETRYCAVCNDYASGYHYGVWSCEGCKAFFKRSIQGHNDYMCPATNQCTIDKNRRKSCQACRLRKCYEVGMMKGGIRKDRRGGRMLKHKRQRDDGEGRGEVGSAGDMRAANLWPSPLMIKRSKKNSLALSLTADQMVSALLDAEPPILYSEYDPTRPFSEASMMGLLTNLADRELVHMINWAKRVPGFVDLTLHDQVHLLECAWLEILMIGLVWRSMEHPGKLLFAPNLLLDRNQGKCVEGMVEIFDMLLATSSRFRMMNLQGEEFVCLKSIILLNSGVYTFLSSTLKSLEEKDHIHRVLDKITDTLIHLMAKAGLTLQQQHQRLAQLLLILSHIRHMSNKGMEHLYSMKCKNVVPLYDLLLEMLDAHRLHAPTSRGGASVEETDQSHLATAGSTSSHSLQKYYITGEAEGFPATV

## C#CCN1C(=O)COc2cc(F)c(N3C(=O)C4=C(CCCC4)C3=O)cc21
[1]
  Potency: inconclusive: 6.86 µM [inhibitor, full curve]
[2]
  Potency: inactive
[3]
  activity, negative = inhibition: inconclusive: -25.9%
[4]
  Potency: inactive
[5]
  Potency: inconclusive: 24.3 µM [rising, partial curve]
[6]
  Potency: inconclusive: 61.1 µM [rising, partial curve]

## COP(=S)(OC)SCN1C(=O)c2ccccc2C1=O
[1]
  Potency: inconclusive: 69.1 µM [inhibitor, single point] and active: 54.5 µM and inconclusive: 23.7 µM [inhibitor, partial curve, poor fit]
[2]
  Potency: inconclusive: 69.1 µM [fluorescent, partial curve, poor fit]
[3]
  Potency: inconclusive: 18.8 µM [activator, partial curve]
[7]
  Potency: inactive

## CCCC[N+]1(C)CCCC1
[1]
  Potency: inconclusive: 60.9 µM [inhibitor, single point] and inactive

## CCNc1nc(Cl)nc(NCC)n1
[1]
  Potency: inconclusive: 1.73 µM [inhibitor, full curve, poor fit]

## CCOP(=S)(OCC)SCn1c(=O)oc2cc(Cl)ccc21
[1]
  Potency: inconclusive: 13.1 µM [inhibitor, full curve] and inconclusive: 4.86 µM [inhibitor, full curve]
[2]
  Potency: inactive
[3]
  Potency: inconclusive: 68.6 µM [inhibitor, single point]
  activity, negative = inhibition: inconclusive: -32.9%
[8]
  Potency: inconclusive: 73.6 µM [cytotoxic, single point]
[9]
  Potency: inconclusive: 41.4 µM [falling, partial curve] and inconclusive: 61.1 µM [falling, partial curve]
[7]
  Potency: inconclusive: 23.3 µM [rising, partial curve] and inconclusive: 30.6 µM [rising, partial curve]

## C#C[C@]1(O)CC[C@H]2[C@@H]3CCC4=CC(=O)CCC4=C3C=C[C@@]21CC
[1]
  Potency: inconclusive: 33.5 µM [inhibitor, partial curve, poor fit]
[2]
  activation: inconclusive: 0.183% [at 42.5 µM]
[3]
  Potency: inconclusive: 23.7 µM [inhibitor, partial curve]
[8]
  Potency: inconclusive: 29.8 µM [rising, single point]
[10]
  Potency: inconclusive: 0.0668 µM [activator, full curve]
[7]
  activity change, negative = inhibition: inconclusive: -39.7% [at 42.5 µM]
[5]
  Potency: inconclusive: 11.9 µM
[6]
  Potency: inconclusive: 23.7 µM [rising, partial curve]

## CC(C)CP(=S)(S)CC(C)C
[1]
  Potency: inconclusive: 27.3 µM [inhibitor]
[2]
  Potency: inconclusive: 3.44 µM [rising, partial curve, poor fit]
[3]
  Potency: inconclusive: 1.93 µM [rising, full curve]
[8]
  Potency: inconclusive: 2.17 µM [cytotoxic, full curve]
[4]
  Potency: inconclusive: 2.43 µM [cytotoxic, full curve]
[7]
  Potency: active: 0.486 µM
[6]
  Potency: inconclusive: 2.43 µM [cytotoxic, full curve]
[11]
  Potency: inactive

## COc1nn(C(=O)NS(=O)(=O)c2ccccc2OC(F)(F)F)c(=O)n1C
[1]
  Potency: inconclusive: 0.558 µM [inhibitor, single point]
[2]
  Potency: inactive

## Cn1cc[n+](C)c1 (tested in a mixture with another compound)
[1]
  Potency: inactive

## COC(=O)Nc1nc2ccccc2[nH]1
[1]
  Potency: active: 24.3 µM and inactive
[2]
  Potency: inactive
[3]
  Potency: inconclusive: 61.1 µM [activator, single point]
[7]
  activity change, negative = inhibition: inconclusive: -28.7%
[5]
  Potency: inactive

## Oc1c(I)cc(I)cc1I
[1]
  Potency: inconclusive: 77 µM [inhibitor, single point]
[2]
  Potency: inconclusive: 15.4 µM
[3]
  Potency: inconclusive: 13.7 µM [full curve]
[8]
  Potency: inconclusive: 13.7 µM [cytotoxic, single point]
[4]
  Potency: inconclusive: 9.69 µM [cytotoxic, single point]
[7]
  Potency: active: 30.6 µM

## Oc1ccc(Cl)c(Cl)c1
[1]
  Potency: inconclusive: 38 µM [inhibitor, partial curve]
[2]
  Potency: inconclusive: 33.9 µM [activator, partial curve]
[3]
  activity, negative = inhibition: inconclusive: -27.6%
[8]
  Potency: inconclusive: 19 µM [cytotoxic, full curve]
[7]
  Potency: active: 26.9 µM

## CC1=C(C(=O)Nc2ccccc2)SCCO1
[1]
  Potency: inactive and inconclusive: 68.6 µM [inhibitor, single point]
[2]
  activation: inconclusive: 4.39%
[3]
  Potency: inactive
[8]
  Potency: inconclusive: 34.4 µM [cytotoxic, partial curve]
[12]
  Potency: inconclusive: 27.3 µM [activator, partial curve]
[7]
  Potency: inconclusive: 69.7 µM [single point] and inconclusive: 61.1 µM [partial curve]
[11]
  Potency: inconclusive: 49.8 µM [cytotoxic, partial curve, poor fit]
